The structures appear in SMILES notation. Several values for one entry are separate records, joined by “and”; a condition that tells them apart may be missing. Equal values may be shown once. Screen size: about 110,000 compounds; about 230 (0.21%) showed an effect of 50% or more. This is one part of the list.

Experimental findings from PMC6919601, “Identification of Plasmodium dipeptidyl aminopeptidase allosteric inhibitors by high throughput screening” (PLoS ONE, 2019) are described below.
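Further: 30 min substrate incubation versus DMSO and 10 µM JCP410 controls.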

Sequence of DPAP1 (Q8IIJ9 whole entry, looked up): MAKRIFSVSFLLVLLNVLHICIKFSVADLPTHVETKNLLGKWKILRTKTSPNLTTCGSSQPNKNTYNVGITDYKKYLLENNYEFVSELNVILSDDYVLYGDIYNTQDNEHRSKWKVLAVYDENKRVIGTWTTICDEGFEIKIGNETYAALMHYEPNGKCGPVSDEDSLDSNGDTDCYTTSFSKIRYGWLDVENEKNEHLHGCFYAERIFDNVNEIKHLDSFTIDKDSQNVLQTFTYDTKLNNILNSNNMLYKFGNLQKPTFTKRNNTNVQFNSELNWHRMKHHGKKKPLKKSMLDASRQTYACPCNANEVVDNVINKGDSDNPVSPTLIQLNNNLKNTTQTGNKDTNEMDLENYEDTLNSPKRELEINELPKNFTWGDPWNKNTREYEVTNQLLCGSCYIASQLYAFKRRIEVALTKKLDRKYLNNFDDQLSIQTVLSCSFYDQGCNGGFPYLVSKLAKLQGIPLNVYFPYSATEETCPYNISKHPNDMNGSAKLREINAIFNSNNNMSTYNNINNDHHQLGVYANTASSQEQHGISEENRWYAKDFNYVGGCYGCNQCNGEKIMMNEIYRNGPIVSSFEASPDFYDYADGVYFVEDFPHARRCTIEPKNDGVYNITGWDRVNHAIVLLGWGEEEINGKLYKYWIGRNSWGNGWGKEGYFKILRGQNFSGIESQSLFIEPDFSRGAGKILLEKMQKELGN

This assay addresses DPAP1 (Plasmodium falciparum, UniProt Q8IIJ9). The assay is described as follows: primary screen, percent inhibition; read by cleavage of a fluorogenic dipeptide substrate; higher = more effect of the substance. Details: species or system P. falciparum D10 trophozoite lysates; single well.
`Clc1ccccc1OCCCN1CCOCC1`: the “% Inhibition @ 10 uM” value is reported as 3.95%. As to `Cc1ccc(S(=O)(=O)N2CCN(C(=O)CSc3nc(C)cc(O)n3)C2)cc1`, the “% Inhibition @ 10 uM” value was -1.69%. Regarding `O=C1C2C3CCC(C3)C2C(=O)N1c1ccc(Oc2ccccc2)cc1` (centres unmarked), the “% Inhibition @ 10 uM” value is on record as -5.13%.

As to `COc1ccc(CCNC(=O)c2cnn(-c3ccccc3)c2-n2cccc2)c(OC)c1`, the “% Inhibition @ 10 uM” value was -7.1%. The value for `Cc1ccc(S(=O)(=O)Nc2c(Cl)cc(Cl)c3cccnc23)cc1` was 0.0345%; that for `O=C(NCC1CCCO1)c1cccs1` (centres unmarked) was -1.22%. The same measure for `c1ccc2c(c1)nc1n2CCN1CCN1CCCCC1`: -5.2%; for `Cc1c(C(=O)NCC2CCCO2)oc2ccc3c(c12)C(=O)CC(C)(c1ccc(Cl)cc1)O3` (centres unmarked): -0.447%. The same measure for `COc1ccccc1-c1nc2s/c(=C\c3sccc3C)c(=O)n2n1`: -1.18%; for `Cc1cccc(C2C3(C#N)C(N)=NC4(OCCO4)C23C#N)c1` (centres unmarked): -3.13%; for `N#Cc1ccccc1NC(=O)Cc1ccccc1`: 4.75%.

As to `COc1ccc(-c2nc(CSc3nnc(C)n4c3cc3sccc34)c(C)o2)cc1OC`, the “% Inhibition @ 10 uM” value is 2.81%. On to `CCOC(=O)c1c(NC(=O)COc2ccc(Cl)cc2Cl)sc(C(=O)N2CCCCC2)c1C`, for which the “% Inhibition @ 10 uM” value is on record as -5.03%.

Turning to `CCOCCCN(Cc1ccco1)C(=O)Nc1cn(CC(C)C)c(=O)c2ccccc12`, the “% Inhibition @ 10 uM” value amounted to 4.74%. The value for `COc1cccc(-c2nn(C)c3sc(C(=O)Nc4cnc5ccccc5c4)cc23)c1` was 7.59%; that for `CN(C)CCN(C)CC(c1ccccc1)c1ccccc1` was 1.62%.

With `CCC1(C)OC(=O)N(C2CC(C)(C)NC(C)(C)C2)C1(C)O` (centres unmarked), the “% Inhibition @ 10 uM” value is given as -2.54%.

On to `Cn1c(S(=O)(=O)Cc2ccccc2)nc2ccccc21`, for which the “% Inhibition @ 10 uM” value is listed as -1.56%.

As to `CCc1ccccc1N(CC(=O)N1CCCCCC1)S(C)(=O)=O`, the “% Inhibition @ 10 uM” value turned out to be 1.85%. The same measure for `CCOc1cc(C(=O)NC(CC(=O)O)c2ccc(OC3CCCC3)cc2)cc(OCC)c1OCC` (centres unmarked): 1.32%; for `CCOc1ccccc1NC(=O)CCc1ccccc1`: -0.48%.

With `CC(Nc1oc(COc2ccccc2F)nc1C#N)c1ccccc1` (centres unmarked), the “% Inhibition @ 10 uM” value was -6.55%. The value for `Clc1cccc(N2CCN(Cc3ccccc3)CC2)c1` was -8.39%; that for `Cc1cc(N2C(=O)CCC2=O)n(-c2ccccc2)n1` was 2.76%. With `COCC(C)NC(=O)c1cc(-c2ccc(F)cc2)on1` (centres unmarked), the “% Inhibition @ 10 uM” value is listed as -4.07%. As to `O=C([C@@H](c1ccccc1)N1Cc2ccccc2C1=O)N1CCN(c2ccccn2)CC1`, the “% Inhibition @ 10 uM” value is on record as -0.465%. The value for `S=c1nc(-c2ccccc2)n(-c2ccc(Cl)cc2)c2c1CCCC2` was -0.711%. The same measure for `CCn1nc(-c2ccc(OC)c(OC)c2)c2c(=O)n(C)c(=O)[nH]c21`: 13.2%; for `CCC(C)NC(=O)Cn1ncc2c3ccccc3n(Cc3ccccc3F)c2c1=O` (centres unmarked): 3.4%. The same measure for `c1ccc(N2CCN(CCCn3c4ccccc4c4ccccc43)CC2)cc1`: -0.636%; for `O=C1NC(C(F)(F)F)(C(F)(F)F)N=C2SC=CN12`: 6.28%; for `CC(C)CCNC(=O)CCCn1c(=O)c2cccn2c2cccnc21`: 2.03%.

Regarding `CCCCNC(=S)NCCc1c(C)[nH]c2ccccc12`, the “% Inhibition @ 10 uM” value is -9.69%. The value for `CC(C)n1cc(/C=C2/NC(=O)NC2=O)c2ccccc21` was -3.06%; that for `CS(=O)(=O)C1=NN2C(=N)/C(=C\c3ccc(OCc4ccc(Cl)cc4)cc3)C(=O)N=C2S1` was -3.39%.

`COc1ccc(CN2C(=O)c3oc4ccc(Br)cc4c(=O)c3C2c2cccc(O)c2)cc1` (centres unmarked): the “% Inhibition @ 10 uM” value is reported as -1.73%. The value for `c1ccc(C2=Nn3c(nnc3C3COc4ccccc4O3)SC2)cc1` (centres unmarked) was 6.01%; that for `CC1=C(C)CC(C(=O)Nc2ccccc2C)C(C(=O)O)C1` (centres unmarked) was -1.37%.

As to `CCc1[nH]nc2c1C(c1cc(OC)ccc1OC)C(C#N)=C(N)O2` (centres unmarked), the “% Inhibition @ 10 uM” value is listed as -2.91%. The value for `CCn1ncc(C2=NOC(C(=O)O)C2)c1C` (centres unmarked) was 1.89%; that for `CCn1cc(CCCC(=O)N2CCN(c3ccccn3)CC2)c2ccccc21` was 3.71%. The value for `Cc1ccc(Oc2nc3ccccn3c(=O)c2/C=C(\C#N)C(=O)N2CCOCC2)cc1` was 8.51%; that for `CC(=O)c1c(O)cc(C)o/c1=N\c1ccccc1N` was -2.54%; that for `CCOCCCNC(=O)CSc1ccc(Cl)cc1` was 12.4%. Regarding `Brc1ccc(CN2C3=NCCCN3c3ccccc32)cc1`, the “% Inhibition @ 10 uM” value is recorded as -4.6%. Consider `Cc1cc(C)nc(NS(=O)(=O)c2ccc(N3C(=O)c4ccccc4C3=O)cc2)n1`, for which the “% Inhibition @ 10 uM” value is given as -0.736%. The value for `O=C(Nc1ccccn1)c1nc(-c2ccc(Cl)cc2)n2c1CCCCC2` was 0.214%. For `CCOC(=O)c1cnc(SCC(=O)NCCc2ccccc2)nc1N`, the “% Inhibition @ 10 uM” value is listed as -1.6%.

With `CNC(=O)c1cc2c(=O)n3ccccc3nc2n(Cc2cccnc2)c1=N`, the “% Inhibition @ 10 uM” value is -1.47%.

Consider `CCOC(=O)c1cc(CC)sc1NC(C)=O`, for which the “% Inhibition @ 10 uM” value worked out at 15.3%.

For the molecule `Cc1[nH]c2ccccc2c1/C=C1\SC(=O)NC1=O`, the “% Inhibition @ 10 uM” value was determined as 1.74%.

Regarding `CCC(Oc1ccccc1)C(=O)NCCc1ccccc1` (centres unmarked), the “% Inhibition @ 10 uM” value is listed as 2.01%. The same measure for `Cc1ccc(C2C(C#N)=C(N)OC3=C2C(=O)CC(c2ccccc2Cl)C3)cc1` (centres unmarked): -0.99%; for `COc1cc(/C=C/c2nc3ccccc3nc2O)cc(OC)c1OC`: 4.11%. As to `CCCCCOc1ccc(C2C(C(=O)OCCOC)=C(C)N=C3SC(CC)C(=O)N32)cc1` (centres unmarked), the “% Inhibition @ 10 uM” value was -1.18%. The value for `CCOc1ccc2nc(N3CCCC(C(=O)N4CCN(Cc5ccccc5)CC4)C3)sc2c1` (centres unmarked) was 1.8%; that for `CC(c1ccccc1)N1C(=O)c2ccccc2C1C(=O)NC1CCCCC1` (centres unmarked) was 1.16%; that for `CCOC(=O)N1CCC(N2CCN(c3ccccc3F)CC2)CC1` was -3.6%. The same measure for `Cc1nn(Cc2cccc(C(=O)Nc3ccccc3F)c2)c(C)c1Cl`: -1.06%; for `Cc1nc2cc(C(=O)NCc3ccc4c(c3)OCO4)ccc2n1-c1ccc(Br)cc1`: 4.35%; for `Cc1nc2ccn(Cc3cccnc3)c(=O)c2cc1C(=O)NCc1ccc(F)cc1`: 0.234%. Turning to `CN1CCN(C(=O)c2cccc(COc3cc(Cl)ccc3Cl)c2)CC1`, the “% Inhibition @ 10 uM” value is on record as -3.13%. Consider `N#Cc1c(/N=C/N2CCOCC2)sc2c1CCCC2`, for which the “% Inhibition @ 10 uM” value turned out to be 0.392%. The value for `CCOC(=O)N1CCN(C(=O)Cn2ncc3c2-c2cc(C)ccc2OC3)CC1` was -0.883%; that for `Cc1nc(O)c(C(=O)/C=C/c2cccs2)c2c1CCCC2` was -3.44%; that for `CCc1ccc(-n2nc(C)c3c(C)cc(=O)n(CC(=O)NC(C)c4cc(OC)ccc4OC)c32)cc1` (centres unmarked) was 12%. The value for `Cc1ccc(O)c(-c2[nH]nc3c2C(c2ccccc2F)N(CCO)C3=O)c1` (centres unmarked) was 0.558%; that for `CCOc1ccc(C2c3c(-c4ccccc4O)n[nH]c3C(=O)N2CC2CCCO2)cc1OC` (centres unmarked) was -1.35%. The value for `CC(C(N)=O)C1=NC(C)(C)Cc2ccccc21` (centres unmarked) was -3.05%. As to `CCOC(=O)C1=C(O)/C(=C\c2ccc(OC)cc2)N=C1C`, the “% Inhibition @ 10 uM” value is 3.05%. Consider `Cc1ccc(C2c3c(-c4ccccc4O)n[nH]c3C(=O)N2CCO)cc1` (centres unmarked), for which the “% Inhibition @ 10 uM” value is reported as -1.56%. The value for `CCN1C(=O)C(CC(=O)Nc2ccccc2)S/C1=N/C1CCCCCC1` (centres unmarked) was -15.4%; that for `CCN(CC)C(=O)c1c(NC(=O)c2ccco2)sc2c1CCCC2` was -10.8%; that for `CC(=O)Nc1ccc(Oc2ccc(NC(C)=O)c(N)c2)cc1N` was 2.95%.

Take `CN1CCN(Cc2ccc(Cl)c(Cl)c2)CC1`: the “% Inhibition @ 10 uM” value is on record as -3.71%. As to `COc1ccccc1C(=O)Nc1ccc(C)c(O)c1`, the “% Inhibition @ 10 uM” value was 4.11%. The same measure for `CC(CCc1ccccc1)NC(=O)C1CCN(S(=O)(=O)c2ccc(Br)s2)CC1` (centres unmarked): -0.0508%; for `CC(C)c1ccc(/C=C2/NC(=O)NC2=O)cc1`: -1.25%. The same measure for `COc1ccccc1-c1c(C)nn2c(N3CCCCCC3)cc(C)nc12`: 0.238%; for `O=C(c1ccc(Cl)cc1)N1CCN(C(=O)c2ccco2)CC1`: -1.29%; for `O=C(O)C1Cc2c([nH]c3ccccc23)C(c2ccc(Cl)cc2Cl)N1` (centres unmarked): 4.22%. As to `CCc1c(C)sc(NC(=O)COc2ccccc2)c1C(N)=O`, the “% Inhibition @ 10 uM” value is on record as -9.11%. As to `CCC(C)c1ccc(NC(=O)C2C3C=CC(O3)C2C(=O)O)cc1` (centres unmarked), the “% Inhibition @ 10 uM” value was -3.24%. The same measure for `CCCNC(=O)OCCOC12CC3CC(CC(C3)C1)C2`: -0.712%; for `CCCOC(=O)c1sc2nc(C)c(C)c(C)c2c1N`: 7.49%; for `O=C(Cn1ncc2c3ccccc3n(Cc3ccccc3)c2c1=O)N1CCN(c2ncccn2)CC1`: 4.95%. The same measure for `O=C(Nc1cc(-c2ccccc2)[nH]n1)c1cc2c(s1)-c1ccccc1OC2`: -3.08%; for `Cc1cccc(C(=O)Nc2cc([N+](=O)[O-])ccc2Cl)c1`: 5.43%.

Consider `OCC1CCCCN1Cc1cc(F)ccc1F` (centres unmarked), for which the “% Inhibition @ 10 uM” value is listed as -1.75%. In the case of `Cc1cc(N2CCCC(C(=O)O)C2)n2cnnc2n1` (centres unmarked), the “% Inhibition @ 10 uM” value is recorded as -5.33%. As for `CC(NC(=O)c1ccc2nc(N3CCOCC3)sc2c1)C12CC3CC(CC(C3)C1)C2` (centres unmarked), the “% Inhibition @ 10 uM” value was 8.62%. The value for `COc1cc(CO)ccc1OCc1nnnn1-c1ccc(C)cc1` was -8.72%; that for `FC(F)(F)COc1nc(N2CCCCC2)nc(N(c2ccccc2)c2ccccc2)n1` was -3.38%. The same measure for `O=[N+]([O-])c1cccc(/C=C/c2ccc3ccccc3n2)c1`: -1.5%. `COc1ccc(CN2CCN(C(=O)CC(C)C)CC2)cc1`: the “% Inhibition @ 10 uM” value was 0.214% and -1.44%. In the case of `Cc1cc(C)c2c(NC(=O)c3ccccc3)c(C(O)c3ccccc3)sc2n1` (centres unmarked), the “% Inhibition @ 10 uM” value is given as -7.8%. The same measure for `COc1ccc2c(CNCc3ccc(C)o3)c(C(=O)O)n(Cc3ccc(F)cc3Cl)c2c1`: 7.87%; for `Cc1ccc(S(=O)(=O)N(CC(=O)N2CCOCC2)c2ccc(C)c(Cl)c2)cc1`: -6.94%; for `CC1CCc2c(sc3ncnc(N4CCN(C)CC4)c23)C1` (centres unmarked): 1.83%. The same measure for `O=[N+]([O-])c1ccc(CS(=O)(=O)Nc2c(Cl)cccc2Cl)cc1`: 3.98%; for `CCN1CCCC1CNC(=O)c1cc2c(-c3cccc(OC)c3)nn(C)c2s1` (centres unmarked): 6.08%.
